Laboratory results taken from the RNAGym collection of RNA variant scans (doi:10.7554/elife.90254).
Read counts are not given, so values of variants with three or more changes are uncertain.

B1: LINE1-full (parent)
chain: UACGUAGGUGGUUUUCCCCUGAUAGUGCUAAGGGGGCCUGGAAGUUUGGACUGGGCAGAGCUCAACACAGCGUGGCAAAGUGGCUGUGGCUAGACUGCCUCUCUGGAUUCCUCGUCACUCAGCAGGGCAUCUCUGAGAGAAAUGCC

Variants of: B1
Assay: self-cleavage, relative activity (ratio to wild type); higher = more cleavage; in vitro, sequencing; the parent is a self-cleaving ribozyme

Row | Variant | self-cleavage
1 | G36U U73A A79G G88A U91C A142G | 0.02
2 | G41A U47C G55A A57G A69U A136U | 0.05
3 | U14C C95U A140G | 0.23
4 | U45A G83U U96C | 0.04
5 | U91C A121G A140G | 0.37
6 | U26A U96C U115A | 0.09
7 | A2U U26C C103A | 0.95
8 | G7A U91C A140G | 0
9 | C28A U87C G139A | 0.2
10 | U15C A22G G75A G97A U112C U143C | 0.11
11 | G4A A42G U47C U102C A124U U134A | 1.02
12 | U20C U52A G74A A117G A141G | 1.28
13 | U47C C56U U96A U134A | 0.01
14 | U1C A69U U115C | 0.21
15 | U26A U45C U100C C145U | 0.89
16 | U13A A69G G82A | 1.31
17 | C84U U87C C103U U104C U130C G135A A136U | 0.06
18 | A50G U100C U104A U143C | 1.49
19 | A24G A50G C66U A79G A129G | 0
20 | U85C U130C U134C | 0.14
21 | U15A G36U A43G A69U | 0.08

Row | Variant | self-cleavage
22 | A30G A64U G83A | 0.38
23 | A2U U73G U81C | 0.9
24 | A57G C84A A121G | 0.13
25 | U5A G27A A142G | 0.75
26 | G7U U112C A121G | 2.67
27 | U14A U20C A42G | 1.98
28 | U12C U26G G58C U62C A79G | 0
29 | A79U U81C U112G | 0.33
30 | U15A U26C A142G | 1.04
31 | U9C U39C A142G | 1.62
32 | A31U A69U G127U | 0.08
33 | C16U A94U C116U | 0.21
34 | U26C A67G U130A A138G | 0.44
35 | U12C A78G U96G | 0.48
36 | U47A U81C U96A | 0.04
37 | A69G U108C G144A | 1.95
38 | A31G A42G U81G | 1.04
39 | A6G U81A U132C | 2.3
40 | U14G U15A G36C G53A A142G | 0.97
41 | C18U U109A A129G | 1.14
42 | U45C A107G U134A | 1.02

Row | Variant | self-cleavage
43 | U26C A31G A64G A107U | 0.59
44 | U29C U104A U108C | 1.56
45 | U14C U39C A43U | 1.02
46 | U5C A22G U85C A140C | 0
47 | U13C U45G U104A U108C A142G | 0.98
48 | U12C U15G G74U U104C | 0.67
49 | U20A A31U A64C A121U | 0.37
50 | U13C U14C A107G A121U | 1.41
51 | U14C G58U U102A A107G A141G | 0.1
52 | G74U U130C U143A | 1.97
53 | A59G U119C U134C | 0
54 | U13A A43G A138G | 0.77
55 | U12C A69G U87A G88A | 0
56 | A30G G44A C84U A121G | 0.5
57 | U12C A107U A117U | 1.94
58 | U9A U13C A65G G114A | 0.43
59 | G35C G125U A142G | 1.48
60 | U102C U104C U109C | 1.23
61 | U14A U29A U134C | 0.75
62 | G10A A31G U100C | 1.23
63 | A69G U104A A138U | 0

Row | Variant | self-cleavage
64 | A2G C28U A67G | 0.69
65 | A6G U39C U47A A138U | 1.15
66 | U13C U46C U87C A138U | 0.17
67 | U1C G33U U47A G72A | 0.79
68 | G33A U87A A94G | 0.09
69 | A43G A65G A94G A141G | 0
70 | U14C A57U U112A | 0.22
71 | G55C U73A U100C | 0.03
72 | U9C U15A U100C | 1
73 | U23C U46C G74A A142G | 1.62
74 | U12G U62A A77U | 0.2
75 | G7A G105A U130C | 1.06
76 | C3U U119C C145A | 1.7
77 | G72U A78G A136U | 1.27
78 | U14A A30G U104A | 1.53
79 | G35U U104A A142G | 1.02
80 | U14C A67U A136G | 0.16
81 | U15A A69G G114A | 0.49
82 | A30G C63A U85C A92G U109C A124U | 0
83 | U9A A142G U143C | 1.11
84 | U20C U73A A117U U119A G144A | 2.06
